Measurements: the supplement of paper PMC11417369
The other results are listed elsewhere or left out.

The sequences below were run on PfAP2-HC AP2 domain (GST-tagged) (assay: gcPBM binding intensity (ln(normalized median fluorescence intensity)); higher = stronger DNA binding).
Procedure, shortened: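 After 1 h on an Agilent 4 × 180k array of primer-extended double-stranded 36-bp intergenic genomic probes and negative controls, bound GST-tagged P. falciparum DNA-binding domains were detected with Alexa488 anti-GST antibody and scanned at 488 nm. The domains had been expressed in E. coli, and binding took place in 1× PBS with 1% milk, 0.2 mg/ml BSA, 0.5% salmon testes DNA and 0.03% Triton X-100. Binding intensity is the highest Masliner-normalised natural-log median intensity across replicate spots of either probe orientation.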

Row | Sequence | gcPBM binding intensity (ln)
1 | AAAGATATTTTTATCTCACACATATAATATATATAT [CACACA_site5478] | 9.66
2 | TATAGAAAATTTATATGTACATATATATATATATAT [XGTACX_site4451] | 9.69
3 | TAAAATTTAAGTTATACACACTTAAGTAACATCATC [CACACA_site6395] | 9.71
4 | GCATATGTATATAATGTGCACATGGATTATATAAAA | 9.87
5 | GTTACTGCATACATAACACACATATTCAAAACACAT [CACACA_site3502] | 9.88
6 | TATTTACAGACATGCGCACACATAAATAAATAATAG [CACACA_site2411] | 9.84
7 | AAATACAAGGGACATGCATACCACTATTTTTTAAAT [TGCATGCA_site588] | 9.58
8 | TTTATATAATAGTTATGTACTTAAACGAAAGATACA [XGTACX_site8495] | 9.49
9 | TACATATTTTTCTTTTCACACATGGAAAAAAAAGGT [CACACA_site5146] | 9.55
10 | TATTAATTCATTTTTTTTTTTTTTTTTTTTTTTTTT [CACACA_negctrl_site1215] | 9.17
11 | ATATATATATATATATATATATATATATATAAGTGG [XGTACX_negctrl_site90] | 9.47
12 | CCCTTAATTTAAAACACACAAACAAATAAGTTAGTT [CACACA_site3793] | 9.69
13 | TATTTTTTTTTTCACTGTACATACAACAACAAATAT [XGTACX_site8835] | 9.61
14 | AATATATTTATTATAACACACACATATATATATTAT [CACACA_site8264] | 10.1
15 | GATTTAATAGATACGAGTACAGAAATTGTATACATA [XGTACX_site7563] | 9.6
16 | TATATATTTTTTTCATGTACATATAAATTAATTAAA [XGTACX_site8680] | 9.34
17 | ACACAAAAAATTAAGTGTACTCATCAAGAAAAAAAA [XGTACX_site3456] | 9.81
18 | ATAAAATACCCTGATCTATTACATATTATATTCTGC [GTGCAC_negctrl_site311] | 9.58
19 | ATAGGAAAAAGTATTGGTACACATACATATACGTTA [XGTACX_site5819] | 9.8
20 | TTATATGTTTTGTGTACACAATTTATTAAATTAATA [CACACA_site5645] | 9.85
21 | CAAACAATTAAACAAACACACATATACATGTATATA [CACACA_site2060] | 10.1
22 | AAAATAAGCCATATACGTACATACATATATAAATAT [XGTACX_site4197] | 9.73

Row | Sequence | gcPBM binding intensity (ln)
23 | TAATTACACTTTAAAAGTACATATATAATAACATTA [XGTACX_site379] | 9.47
24 | TTTTTTATGTTCAATTGTACATATACATATATATAT [XGTACX_site6013] | 10.2
25 | TTCATATTTCATATATGTACTTATGTTCAATATAGT [XGTACX_site3811] | 9.66
26 | AATGGAAAAATAGGCACACACACATAAATACAGATA [CACACA_site4844] | 11.2
27 | TAAAAAAAAATAAAAAGTACATATATATATATATAT [XGTACX_site1155] | 9.71
28 | AATATGAAACAAGACGCACACATAAATAAATAAATA [CACACA_site326] | 10.1
29 | AGTGCTACTCATGATTGAATAGAGGAAAAGGCGGTG [GTGCAC_negctrl_site49] | 9.61
30 | CACATAAAAAAATAAACACACATATGTATATAAATA [CACACA_site7483] | 9.98
31 | CTTTAAATGATGTAAACACACACATATACATTATTA [CACACA_site9035] | 10
32 | CCATATTTAATAAAATGTACTCATTCTTTTATTTTA [XGTACX_site7802] | 9.47
33 | TTAATAGTGGAAATATGTACATAATTTTGGTCTTTT [XGTACX_site1664] | 9.64
34 | CTGTTCAAAATATGAACACACACATATATATATATA [CACACA_site8638] | 10
35 | TTGAAAAATCAGCACACACACAAATACATACATATT [CACACA_site7505] | 10.5
36 | ACATATGGCACATATGTACACACGTATAGATAATAT [CACACA_site2024] | 10.2
37 | CTAAAAAAATAATAAAGTACACAAACGAATATATAA [XGTACX_site668] | 9.82
38 | CTTTTTTGGTACATCACACATTTTTACATTCCCTTT [CACACA_site4957] | 10
39 | TTTTTTTTTTTTTTTGCACACTATATTTAATATAAG [CACACA_site2444] | 9.54
40 | ATAGATGCATATTATACACACATATGTAAATACATT [CACACA_site4691] | 9.95
41 | CCACTATATAAAATCACACATTTATATTATACATAT [CACACA_site4570] | 9.93
42 | TTTATTTTAATTTATTGTACATTGTTATCAAGTGCA [XGTACX_site1110] | 9.46
43 | TATTGGTAATGTAAATGTACATATAGATATTTACAT [XGTACX_site1922] | 9.61
44 | ATAATAGTTAAATGTACACACTAACTACATGGAATA [CACACA_site5753] | 9.87

Row | Sequence | gcPBM binding intensity (ln)
45 | AAAAAAAGAAATTAGGTGCATAGCATTAACCGATAA [GTGCAC_site9582] | 9.77
46 | TTGAAGTTAATAAAAACTTTATACATGAAATTATTT [CACACA_negctrl_site684] | 9.45
47 | GATTCCTTTAACCCTGCACACATACATACATTTATA [CACACA_site9308] | 10.1
48 | TATATTTCTTATTACATACACACATATACATATATG [CACACA_site3202] | 9.95
49 | TAATAATATAATAATACACACTCATTATATATATAA [CACACA_site6045] | 9.69
50 | CCATTCAAATTTCGCACACACATACAAAAAAAAAAA [CACACA_site3093] | 10.1
51 | TATAAATGATTAATTTGTACATATTTTACTTAATTG [XGTACX_site5271] | 9.63
52 | TAAATAAATAAATATATATATATATATATATATATA [XGTACX_negctrl_site70] | 9.37
53 | TTGATGATATCATTTTGTACTTATACGTATTTAAAA [XGTACX_site148] | 9.53
54 | ACAAAAAAAAAAAAAATACACACACATAAAAAAAAA [TGCATGCA_negctrl_site333] | 10.2
55 | ACAAAATATTTTTCTTCACACATCCATTCAACATTT [CACACA_site5886] | 9.91
56 | TATATATATATATATATTAATAATTAATATAAAAGA [XGTACX_negctrl_site32] | 9.61
57 | AATCAAAACATTAAAAAGAAAAAATATATATATATA [CACACA_negctrl_site366] | 9.29
58 | ATATAGATCTATAATACACACTTATGAAATGTCTAA [CACACA_site6946] | 9.73
59 | TTGTTTCCGATGAAAGAAAGGAAATTATAATATATC [GTGCAC_negctrl_site516] | 9.29
60 | GTCTCCTTTATTTTTGGTACAGATAAGATAAAAGGA [XGTACX_site1591] | 9.32
61 | GTGTTCATATATAGCCGTACATATGTCTTATGAACG [XGTACX_site5647] | 9.59
62 | ATTATCAAAAAAAAAAAAAAAAAAAAAAAAAAAAAA [CACACA_negctrl_site1118] | 8.87
63 | TATAACATTATTTTGTGTACACATTCGGTTATATTA [XGTACX_site6310] | 10
64 | AATCAAAATATATCTACACACATTTAAGTAACCCAT [CACACA_site5846] | 10.1
65 | TTTGTGCTTATCCTAACACACACAACATATAAGAAA [CACACA_site9091] | 9.83
66 | ATATATATTTTTATAACACACAATGATGTACATTAC [CACACA_site1076] | 9.79

Row | Sequence | gcPBM binding intensity (ln)
67 | TGTGTAGCTAGGGGGTTGCTAATTTTTGTTTTGACC [CACACA_negctrl_site634] | 9.93
68 | TTATATATACCATAATGTACTCTATTATATAAAAAA [XGTACX_site7464] | 9.38
69 | AGAAAAAACAAAAGAGAAATGAAAAAAAAAAAAAAA [XGTACX_negctrl_site482] | 8.98
70 | TAAAATAATATTTATGTGCACATATAATTATTAATT | 9.6
71 | ATCATAACTTGATACGCACACGTTATATAAATAAAA [CACACA_site4955] | 9.67
72 | TTATGTTGCGAGTTCTTAAGATATAAAAAATTCTTC [GTGCAC_negctrl_site45] | 9.38
73 | TGAGAATAAAAAAAAGGGATTATTAGATTTCTCCTT [TGCATGCA_negctrl_site326] | 9.31
74 | AAGACAAATTGTGACACACACAAAAAAAAAAAAAAA [CACACA_site3727] | 9.85
75 | AAAAAAATAAGGTGCACACAAAAAAAAAAAAAAAAA [CACACA_site812] | 9.57
76 | ATTCAATAAACGTATTGTACAAAAGAACGATATATT [XGTACX_site2533] | 9.78
77 | TATTGGATCACACAAAAATGTATAAATAAATAGAAA [TGCATGCA_negctrl_site490] | 9.69
78 | TACCTTATATTATATACACACATATAATATAATATA [CACACA_site1328] | 9.78
79 | GATTCATTTCGTAATACACACAACAAATATTTCAAA [CACACA_site1772] | 9.68
80 | AATGTAAATAAGTGTACACATATATAATACATACAT [CACACA_site4938] | 9.99
81 | TATGTCCATATTTCCACACACATATTATTTTTATAT [CACACA_site3798] | 10
82 | TATTAAAAAATTATATGTACACATTTGTTATATACA [XGTACX_site2232] | 9.56
83 | ATAAAAAAATAAATAACACACAAAATTACACGAAAA [CACACA_site3620] | 10.1
84 | TTCTTTATATATGTTCGTACATATTATTATAATACA [XGTACX_site1549] | 9.8
85 | TAATTTTCATGTTCATGTACTTAAATATAAGGTAAA [XGTACX_site3284] | 9.35
86 | TGCCTTATTAAAAGAATTACACATATTTAATCGAAA [GTGCAC_negctrl_site153] | 9.39
87 | ATTCATAACAAAAAAAGTACTCAAAATAATAATAAA [XGTACX_site6079] | 9.6
88 | AGTAATTATTTTAGAGTGCATAGTTTTTTAATAAAT | 9.46
